# Measured values as given in PMC9911399, “Two distinct binding modes provide the RNA-binding protein RbFox with extraordinary sequence specificity”.
# Positions count from the first letter of the chain named. Some of the results follow.
# T1: RBFOX1 RRM RbFoxmut (Fox-RRM*) (Homo sapiens, UniProt Q9NWB1 109-208, R118D;E147R;N151S;E152T)
# T1 sequence: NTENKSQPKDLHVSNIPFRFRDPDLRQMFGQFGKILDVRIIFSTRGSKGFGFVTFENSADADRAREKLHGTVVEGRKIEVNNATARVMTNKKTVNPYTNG
# B1: AACUUCA (DNA:RNA)
# RNA: GGGAGACCGGAAUUCAGAUUGUCCAACUUCAUUAAAUCCCGUCGUAGCCACCA
# DNA 1: CAATCTGAATTCCGGTCTCCC
# DNA 2: TGGTGGCTACGACGGGATT
# B2: AACACGC (DNA:RNA)
# RNA: B1 RNA with U28A, U29C, C30G, A31C
# DNA 1: CAATCTGAATTCCGGTCTCCC
# DNA 2: TGGTGGCTACGACGGGATT
# B3: GUAUCUA (DNA:RNA)
# RNA: B1 RNA with A25G, A26U, C27A, U29C, C30U
# DNA 1: CAATCTGAATTCCGGTCTCCC
# DNA 2: TGGTGGCTACGACGGGATT
# B4: CAGAUCG (DNA:RNA)
# RNA: B1 RNA with A25C, C27G, U28A, A31G
# DNA 1: CAATCTGAATTCCGGTCTCCC
# DNA 2: TGGTGGCTACGACGGGATT
# B5: CUGAGGG (DNA:RNA)
# RNA: GGGAGACCGGAAUUCAGAUUGUCCCUGAGGGUUAAAUCCCGUCGUAGCCACCA
# DNA 1: CAATCTGAATTCCGGTCTCCC
# DNA 2: TGGTGGCTACGACGGGATT
# B6: UGCUCAC (DNA:RNA)
# RNA: B1 RNA with A25U, A26G, U29C, C30A, A31C
# DNA 1: CAATCTGAATTCCGGTCTCCC
# DNA 2: TGGTGGCTACGACGGGATT
# B7: CGAACAA (DNA:RNA)
# RNA: B5 RNA with U26G, G27A, G29C, G30A, G31A
# DNA 1: CAATCTGAATTCCGGTCTCCC
# DNA 2: TGGTGGCTACGACGGGATT
# B8: GCAGAGU (DNA:RNA)
# RNA: B5 RNA with C25G, U26C, G27A, A28G, G29A, G31U
# DNA 1: CAATCTGAATTCCGGTCTCCC
# DNA 2: TGGTGGCTACGACGGGATT
# B9: AGACCCG (DNA:RNA)
# RNA: B1 RNA with A26G, C27A, U28C, U29C, A31G
# DNA 1: CAATCTGAATTCCGGTCTCCC
# DNA 2: TGGTGGCTACGACGGGATT
# B10: GAUUGGU (DNA:RNA)
# RNA: B1 RNA with A25G, C27U, U29G, C30G, A31U
# DNA 1: CAATCTGAATTCCGGTCTCCC
# DNA 2: TGGTGGCTACGACGGGATT
# B11: CUGUCGC (DNA:RNA)
# RNA: B5 RNA with A28U, G29C, G31C
# DNA 1: CAATCTGAATTCCGGTCTCCC
# DNA 2: TGGTGGCTACGACGGGATT
# B12: CACGCAC (DNA:RNA)
# RNA: B1 RNA with A25C, U28G, U29C, C30A, A31C
# DNA 1: CAATCTGAATTCCGGTCTCCC
# DNA 2: TGGTGGCTACGACGGGATT
# B13: UGGCUAC (DNA:RNA)
# RNA: B1 RNA with A25U, A26G, C27G, U28C, C30A, A31C
# DNA 1: CAATCTGAATTCCGGTCTCCC
# DNA 2: TGGTGGCTACGACGGGATT
# B14: CAAAUAC (DNA:RNA)
# RNA: B1 RNA with A25C, C27A, U28A, C30A, A31C
# DNA 1: CAATCTGAATTCCGGTCTCCC
# DNA 2: TGGTGGCTACGACGGGATT
# B15: GUAUAUG (DNA:RNA)
# RNA: B5 RNA with C25G, G27A, A28U, G29A, G30U
# DNA 1: CAATCTGAATTCCGGTCTCCC
# DNA 2: TGGTGGCTACGACGGGATT
# B16: ACUUUGU (DNA:RNA)
# RNA: B1 RNA with A26C, C27U, C30G, A31U
# DNA 1: CAATCTGAATTCCGGTCTCCC
# DNA 2: TGGTGGCTACGACGGGATT
# B17: GUGAACC (DNA:RNA)
# RNA: B5 RNA with C25G, G29A, G30C, G31C
# DNA 1: CAATCTGAATTCCGGTCTCCC
# DNA 2: TGGTGGCTACGACGGGATT
# B18: UGUCCAU (DNA:RNA)
# RNA: GGGAGACCGGAAUUCAGAUUGUCCUGUCCAUUUAAAUCCCGUCGUAGCCACCA
# DNA 1: CAATCTGAATTCCGGTCTCCC
# DNA 2: TGGTGGCTACGACGGGATT
# B19: GAUUUUC (DNA:RNA)
# RNA: B1 RNA with A25G, C27U, C30U, A31C
# DNA 1: CAATCTGAATTCCGGTCTCCC
# DNA 2: TGGTGGCTACGACGGGATT
# B20: UGAAAAU (DNA:RNA)
# RNA: B18 RNA with U27A, C28A, C29A
# DNA 1: CAATCTGAATTCCGGTCTCCC
# DNA 2: TGGTGGCTACGACGGGATT
# B21: AUGGGUU (DNA:RNA)
# RNA: B5 RNA with C25A, A28G, G30U, G31U
# DNA 1: CAATCTGAATTCCGGTCTCCC
# DNA 2: TGGTGGCTACGACGGGATT
# B22: CAACUUA (DNA:RNA)
# RNA: B1 RNA with A25C, C27A, U28C, C30U
# DNA 1: CAATCTGAATTCCGGTCTCCC
# DNA 2: TGGTGGCTACGACGGGATT
# B23: AGGAAUC (DNA:RNA)
# RNA: B5 RNA with C25A, U26G, G29A, G30U, G31C
# DNA 1: CAATCTGAATTCCGGTCTCCC
# DNA 2: TGGTGGCTACGACGGGATT
# B24: CUGGGUU (DNA:RNA)
# RNA: B5 RNA with A28G, G30U, G31U
# DNA 1: CAATCTGAATTCCGGTCTCCC
# DNA 2: TGGTGGCTACGACGGGATT
# B25: UGGCCUG (DNA:RNA)
# RNA: B18 RNA with U27G, A30U, U31G
# DNA 1: CAATCTGAATTCCGGTCTCCC
# DNA 2: TGGTGGCTACGACGGGATT
# B26: GAGGUAU (DNA:RNA)
# RNA: B1 RNA with A25G, C27G, U28G, C30A, A31U
# DNA 1: CAATCTGAATTCCGGTCTCCC
# DNA 2: TGGTGGCTACGACGGGATT
# B27: GCCUCGA (DNA:RNA)
# RNA: B1 RNA with A25G, A26C, U29C, C30G
# DNA 1: CAATCTGAATTCCGGTCTCCC
# DNA 2: TGGTGGCTACGACGGGATT
# B28: ACAAGAC (DNA:RNA)
# RNA: B5 RNA with C25A, U26C, G27A, G30A, G31C
# DNA 1: CAATCTGAATTCCGGTCTCCC
# DNA 2: TGGTGGCTACGACGGGATT
# B29: AGACUGA (DNA:RNA)
# RNA: B1 RNA with A26G, C27A, U28C, C30G
# DNA 1: CAATCTGAATTCCGGTCTCCC
# DNA 2: TGGTGGCTACGACGGGATT
# B30: UUCAUUG (DNA:RNA)
# RNA: B5 RNA with C25U, G27C, G29U, G30U
# DNA 1: CAATCTGAATTCCGGTCTCCC
# DNA 2: TGGTGGCTACGACGGGATT
# B31: UGUUUCU (DNA:RNA)
# RNA: B18 RNA with C28U, C29U, A30C
# DNA 1: CAATCTGAATTCCGGTCTCCC
# DNA 2: TGGTGGCTACGACGGGATT
# Target: T1, RBFOX1 RRM RbFoxmut (Fox-RRM*)
# Assay: EMSA; HiTS-Eq, 1 nM pool, 10 min; buffer printed only for the single-RNA assays: 10 mM Tris pH 7.5, 150 mM NaCl, 3.4 mM EDTA, 0.001% NP-40, 30 C
# Settings: tags: His6 N-terminal (pET28a); label: 5' 32P
# How it was run: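 A pool of RNA with 7 randomized nucleotides, 5′-radiolabelled and with DNA-annealed flanks, was equilibrated at 1 nM for 10 min in 50 µL with purified RbFox RRM, wild type or mutant, across increasing protein concentrations. Free RNA was separated by 8% native PAGE, excised, reverse-transcribed, barcoded by PCR and sequenced. Relative association constants were obtained from read-count changes of each RNA species versus the control reaction and normalised to the cognate motif.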
row,Binder,binding signal
1,B1,0.121 KA relative to UGCAUGU
2,B2,0.0609 KA relative to UGCAUGU
3,B3,0.227 KA relative to UGCAUGU
4,B4,0.0942 KA relative to UGCAUGU
5,B5,0.066 KA relative to UGCAUGU
6,B6,0.119 KA relative to UGCAUGU
7,B7,0.0349 KA relative to UGCAUGU
8,B8,0.125 KA relative to UGCAUGU
9,B9,0.0812 KA relative to UGCAUGU
10,B10,0.172 KA relative to UGCAUGU
11,B11,0.0972 KA relative to UGCAUGU
12,B12,0.0772 KA relative to UGCAUGU
13,B13,0.0987 KA relative to UGCAUGU
14,B14,0.0909 KA relative to UGCAUGU
15,B15,0.199 KA relative to UGCAUGU
16,B16,0.117 KA relative to UGCAUGU

row,Binder,binding signal
1,B17,0.13 KA relative to UGCAUGU
2,B18,0.109 KA relative to UGCAUGU
3,B19,0.0366 KA relative to UGCAUGU
4,B20,0.0582 KA relative to UGCAUGU
5,B21,0.143 KA relative to UGCAUGU
6,B22,0.121 KA relative to UGCAUGU
7,B23,0.261 KA relative to UGCAUGU
8,B24,0.11 KA relative to UGCAUGU
9,B25,0.359 KA relative to UGCAUGU
10,B26,0.129 KA relative to UGCAUGU
11,B27,0.197 KA relative to UGCAUGU
12,B28,0.0628 KA relative to UGCAUGU
13,B29,0.0992 KA relative to UGCAUGU
14,B30,0.13 KA relative to UGCAUGU
15,B31,0.134 KA relative to UGCAUGU
